Measured values taken from the antibiotic and cytotoxicity screens of Wong et al. (2023).
The other results are listed elsewhere or left out.

tested on: S. aureus RN4220; assay: growth inhibition call (relative growth <= 0.2); conditions: 50 µM

Growth inhibition call, inactive:
CCCCCN1CC=C[C@@]23O[C@@H]4C=CCOC(=O)[C@@H]4[C@H]2C(=O)N(CCCO)[C@@H]3C1=O, COc1ccc(S(=O)(=O)N(C)C[C@@H]2Oc3cc(C#CC4CCCC4)ccc3S(=O)(=O)N([C@H](C)CO)C[C@H]2C)cc1, C[C@@H]1CCCCO[C@H](CN(C)C(=O)CCC(F)(F)F)[C@@H](C)CN([C@@H](C)CO)C(=O)c2cc(NC(=O)CCC(F)(F)F)ccc2O1, CN(C)CC(=O)N[C@H]1CC[C@H](CC(=O)O)O[C@H]1CO, C[C@H](CO)N1C[C@H](C)[C@@H](CN(C)C(=O)Nc2ccc(C(F)(F)F)cc2)OCCCC[C@H](C)Oc2ccc(NS(=O)(=O)c3cccs3)cc2C1=O, C[C@@H]1CN([C@H](C)CO)C(=O)Cc2cc(NS(=O)(=O)c3cn(C)cn3)ccc2O[C@H]1CN(C)S(=O)(=O)c1ccc(Cl)cc1, C[C@H](CO)N1C[C@H](C)[C@H](CN(C)C(=O)Nc2ccc3c(c2)OCO3)Oc2ncc(-c3cncnc3)cc2C1=O, C[C@H](CO)N1C[C@H](C)[C@@H](CN(C)S(C)(=O)=O)Oc2ccc(NS(=O)(=O)c3ccccc3)cc2CC1=O, C[C@@H]1CCCCO[C@@H](CN(C)C(=O)Nc2ccc(F)cc2)[C@@H](C)CN([C@H](C)CO)C(=O)c2cc(NS(=O)(=O)c3ccc(F)cc3)ccc2O1, Cc1ccc(S(=O)(=O)N(C)C[C@@H]2Oc3ccc(NS(=O)(=O)c4c(C)noc4C)cc3CC(=O)N([C@@H](C)CO)C[C@@H]2C)cc1, c1ccc2n[nH]nc2c1, C[C@@H]1CN([C@H](C)CO)C(=O)CCCn2cc(nn2)CO[C@@H]1CN(C)C(=O)Nc1cccc(C(F)(F)F)c1, C[C@H](CO)N1C[C@H](C)[C@H](CN(C)C(=O)Nc2ccc3c(c2)OCO3)Oc2c(NS(C)(=O)=O)cccc2C1=O, C[C@H]1CN([C@@H](C)CO)C(=O)c2cccc(NC(=O)C3CCOCC3)c2O[C@@H]1CN(C)S(=O)(=O)c1cccs1, CC(C)NC(=O)Nc1ccc2c(c1)CC(=O)N([C@@H](C)CO)C[C@@H](C)[C@@H](CN(C)Cc1ccc(C(=O)O)cc1)O2, C[C@H](CO)N1C[C@H](C)[C@@H](CN(C)C(=O)Nc2ccccc2)OCCCC[C@H](C)Oc2ccc(NC(=O)Nc3ccc(F)cc3)cc2C1=O, Cc1cc(C(=O)Nc2cccc3c2O[C@H](CN(C)S(=O)(=O)c2cccs2)[C@H](C)CN([C@H](C)CO)C3=O)n(C)n1, C[C@H](CO)N1C[C@H](C)[C@@H](CN(C)C(=O)NC2CCCCC2)Oc2c(NC(=O)C3CCOCC3)cccc2C1=O, C=CCN1C[C@@H](C(=O)O)CCC1=O, CO[C@H]1CN(C)C(=O)c2cc(NC(=O)Nc3ccccc3F)ccc2OC[C@@H](C)N(CCC(F)(F)F)C[C@@H]1C, COc1ccc(S(=O)(=O)N(C)C[C@H]2Oc3ccc(NC(=O)CCCN(C)C)cc3C(=O)N([C@H](C)CO)C[C@H]2C)cc1, O=C(Nc1cccc2cccnc12)[C@H]1[C@@H](c2ccc(Br)cc2)CC(=O)N1C(=O)OCc1ccccc1, C[C@H](CO)N1C[C@H](C)[C@H](CN(C)Cc2ccncc2)Oc2c(NC(=O)c3cnccn3)cccc2C1=O, CO[C@H]1CN(C)C(=O)c2ccc(NC(=O)C3CC3)cc2OC[C@@H](C)N(C(=O)C2CCOCC2)C[C@H]1C, C[C@@H]1CN([C@H](C)CO)C(=O)c2cc(NS(=O)(=O)c3cn(C)cn3)ccc2O[C@H]1CN(C)S(=O)(=O)c1cn(C)cn1, CCOC(=O)[C@@H](C#N)C(=O)C1CC1, CN(C)CC(=O)N[C@@H]1C=C[C@H](CC(=O)O)O[C@H]1CO, C[C@@H]1CN([C@@H](C)CO)C(=O)c2cc(NC(=O)Cc3ccccc3)ccc2O[C@@H]1CN(C)S(=O)(=O)c1cccs1, C[C@@H]1CCCCO[C@H](CN(C)S(=O)(=O)c2ccc(F)cc2)[C@@H](C)CN([C@@H](C)CO)C(=O)c2cc(NC(=O)Nc3ccc4c(c3)OCO4)ccc2O1, C=CC[C@H](CC(=O)N[C@@H](CO)Cc1ccccc1)C(=O)N[C@H](COC(=O)[C@@H](CC=C)Cc1ccc(F)cc1)Cc1c[nH]c2ccccc12, C[C@@H]1CCCCO[C@H](CN(C)C(=O)Nc2ccc(C(F)(F)F)cc2)[C@@H](C)CN([C@H](C)CO)C(=O)c2cc(NC(=O)Nc3ccc(C(F)(F)F)cc3)ccc2O1, C[C@H]1CN([C@@H](C)CO)C(=O)Cc2cc(NS(C)(=O)=O)ccc2O[C@@H]1CN(C)C(=O)NC1CCCCC1, C[C@H]1CN([C@@H](C)CO)C(=O)c2cccc(NS(C)(=O)=O)c2O[C@@H]1CN(C)S(=O)(=O)c1cccs1, COc1ccc(CN(C)C[C@H]2OCCCC[C@H](C)Oc3ccc(NC(=O)Nc4c(C)noc4C)cc3C(=O)N([C@@H](C)CO)C[C@@H]2C)cc1, C[C@H](CO)N1C[C@H](C)[C@@H](CN(C)C(=O)CCCN(C)C)OCc2cnnn2CCCC1=O, C[C@@H]1CCCCO[C@H](CN(C)S(=O)(=O)c2ccc(Cl)cc2)[C@H](C)CN([C@H](C)CO)C(=O)c2cc(NC(=O)CCC(F)(F)F)ccc2O1, C[C@@H]1CN([C@H](C)CO)C(=O)c2cccc(NC(=O)Nc3ccc(F)cc3)c2O[C@@H]1CN(C)C(=O)Nc1cccc2ccccc12, NCC[C@@H]1CC[C@@H](NC(=O)C2CCCCC2)[C@H](CO)O1, CC(C)NC(=O)Nc1cccc2c1O[C@H](CN(C)Cc1ccc(C(=O)O)cc1)[C@H](C)CN([C@@H](C)CO)C2=O
